Laboratory results reported in PubChem BioAssay AID588855 (National Center for Advancing Translational Sciences (NCATS), 2011).
The campaign covered roughly 410,000 compounds. About 5,000 (1.2%) were called active. Inconclusive means that the source gave no clear call. Such entries were picked first, then a sample of the others. Calls follow the shape of the dose curve; as a rule, active = well fitted inhibition curve with a large enough effect; inconclusive = small, poorly fitted or top-dose-only effect; inactive = no such curve, though single readings can be large or run the other way. Where the call is inconclusive, the potency comes from a doubtful curve fit.

Test: qHTS for Inhibitors of TGF-b; also: nearly all actives have a fitted effect of over 65% in size
Details: HepG2 CAGA-GFP TGF-b/SMAD3 reporter, GFP fluorescence, 18 h, TGF-beta stimulated, 500 pg/mL final; series mostly up to 46.1 µM; activity, negative = inhibition: at the top concentration
Procedure, shortened: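 Using HEPG2 CAGA-GFP reporter cells at 1000 cells/well, we pinned test compounds, stimulated with recombinant TGF-beta (500 pg/mL final) and measured total well GFP after 18 h.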
% is scaled to controls: 0 for no effect and ±100 for the full control effect; potency is read from the fitted curve at half-maximal effect; tags tell the direction and shape of the fitted curve.

Question: With `Cc1cc(C)cc(NC(=O)C(=O)NCC(c2ccc3c(c2)OCO3)N2CCOCC2)c1` (stereo not drawn) as the molecule, how does the “activity, negative = inhibition” value read?
Answer: The value was inactive: -6.13%.

Question: For `O=C(NC(c1ccccc1)c1ccccc1)c1ccc(S(=O)(=O)C(F)F)cc1`, which Potency is on record?
Answer: Its Potency is inconclusive: 12.6 µM [inhibitor, partial curve, poor fit].

Question: With `CCc1cccc(CC)c1NC(=O)C[n+]1cccc(C(N)=O)c1` as the molecule, how does the Potency read?
Answer: The Potency was inconclusive: 1 µM [inhibitor, single point].

Question: With `CCOc1ccc(N2CC(C)Cn3c2nc2c3c(=O)n(CC(=O)O)c(=O)n2C)cc1` (stereo not drawn) as the molecule, how does the “activity, negative = inhibition” value read?
Answer: Its value is inactive: 8.03%.

Question: For `O=[N+]([O-])c1ccc(CCNc2cccc3ccccc23)c([N+](=O)[O-])c1`, which Potency is on record?
Answer: The Potency was inconclusive: 22.4 µM [inhibitor, single point].

Question: Which “activity, negative = inhibition” value does the source give for `CCc1ccc(-n2nc3ccc(NC(=O)c4cc(Cl)c(OC)c(Cl)c4)cc3n2)cc1` here?
Answer: The value was inactive: -1.88%.

Question: Which “activity, negative = inhibition” value does the source give for `Cc1ccc(CNC(=O)c2cc3c(s2)CN(Cc2ccccc2)C3)cc1` here?
Answer: Its value is inactive: -11.8%.

Question: With `Cc1ccc(NC(=O)CN(CCc2ccccc2)S(=O)(=O)c2ccccc2)c(C)c1` as the molecule, how does the Potency read?
Answer: Its Potency is inconclusive: 8.91 µM [inhibitor, partial curve, poor fit].

Question: Which Potency does the source give for `CCOc1ccc(C2C(=O)N(C3CCCCCC3)CC(=O)N2CCC2=CCCCC2)cc1OC` (stereo not drawn) here?
Answer: The Potency was inconclusive: 35.5 µM [inhibitor, single point].

Question: For `COC(=O)c1ccc(NC(=O)CSC2=Nc3ccccc3C3CC=NN23)cc1` (stereo not drawn), which “activity, negative = inhibition” value is on record?
Answer: The value was inactive: -5.22%.

Question: Which “activity, negative = inhibition” value does the source give for `Cc1cc(NC(=O)COc2cccc(Oc3ccccc3)c2)no1` here?
Answer: Its value is inactive: -7.14%.

Question: For `CN(C(=O)CSc1nc2ccc(NC(=O)c3ccccc3F)cc2s1)c1ccccc1`, which Potency is on record?
Answer: Its Potency is inconclusive: 35.5 µM [inhibitor, single point].

Question: For `CCOc1ccccc1N(C)S(=O)(=O)c1ccc2c(c1)CC(C)N2C(=O)C1CC1` (stereo not drawn), which Potency is on record?
Answer: The Potency was inconclusive: 35.5 µM [inhibitor, single point].

Question: For `CN(C)S(=O)(=O)c1ccc(NC(=O)c2cc(-c3cccs3)nc3ccccc23)cc1`, which Potency is on record?
Answer: Its Potency is inconclusive: 35.5 µM [inhibitor, partial curve, poor fit].

Question: With `Cc1nnnn1CC(=O)Nc1ccccc1[N+](=O)[O-]` as the molecule, how does the Potency read?
Answer: The Potency was inconclusive: 0.794 µM [inhibitor, full curve, poor fit].

Question: Which “activity, negative = inhibition” value does the source give for `CCC(=O)N1CCc2cc(S(=O)(=O)NC(C(=O)NCc3ccccc3Cl)C(C)C)ccc21` (stereo not drawn) here?
Answer: Its value is inactive: 19.1%.

Question: For `Cc1c(C(=O)NCc2ccccc2Cl)sc2nc(-c3ccc(F)cc3)cn12`, which Potency is on record?
Answer: The Potency was inconclusive: 14.1 µM [inhibitor, single point].

Question: With `COc1ccc(CC(=O)Nc2c3c(nn2-c2cccc(C)c2C)CS(=O)(=O)C3)cc1` as the molecule, how does the Potency read?
Answer: The Potency was inconclusive: 35.5 µM [inhibitor, single point].

Question: For `CCOC(=O)CN(Cc1ccccc1)C(C(=O)NC1CCCCC1)c1ccc(C)cc1` (stereo not drawn), which “activity, negative = inhibition” value is on record?
Answer: The value was inactive: -1.96%.

Question: For `CCOC(=O)C1CCN(C(=O)Cn2c(-c3cccs3)cc3cc(Cl)ccc32)CC1`, which Potency is on record?
Answer: The Potency was inconclusive: 7.94 µM [inhibitor, partial curve, poor fit].

Question: For `O=C(O)CCc1ccc2ccccc2c1`, which “activity, negative = inhibition” value is on record?
Answer: Its value is inactive: 5.58%.

Question: With `CCCCNC(=O)CC(C(=O)N1CCc2ccccc21)n1ccnc1` (stereo not drawn) as the molecule, how does the “activity, negative = inhibition” value read?
Answer: Its value is inactive: -11.1%.

Question: Which “activity, negative = inhibition” value does the source give for `O=C(N/N=C/c1ccc2c(c1)OCO2)c1ccccn1` here?
Answer: The value was inactive: 0.458%.

Question: Which “activity, negative = inhibition” value does the source give for `O=C1CN(S(=O)(=O)c2cc(C(F)(F)F)ccc2Cl)CCN1` here?
Answer: The value was inactive: -1.28%.

Question: With `COc1ccc(N2CCN(CC(O)COc3ccc(C)cc3C)CC2)cc1` (stereo not drawn) as the molecule, how does the Potency read?
Answer: The Potency was inconclusive: 22.4 µM [inhibitor, partial curve, poor fit].

Question: For `CC1=C(c2ccc(C)cc2)S(=O)(=O)NC1=NCCCN1CCN(c2cc(C)ccc2C)CC1`, which Potency is on record?
Answer: Its Potency is active: 20 µM.

Question: For `COC(=O)N/N=C/c1cc(C)n(-c2cccc3ccccc23)c1C`, which Potency is on record?
Answer: The Potency was inconclusive: 11.2 µM [inhibitor, single point].

Question: With `CC(=O)N1C(=O)C2(C(C#N)=C(N)Oc3c2c(C)nn3-c2ccccc2)c2ccccc21` (stereo not drawn) as the molecule, how does the Potency read?
Answer: The Potency was inconclusive: 12.6 µM [inhibitor, partial curve, poor fit].

Question: For `CC1(C(=O)Nc2cnc3ccccc3c2)CCN1CCOc1ccccc1` (stereo not drawn), which “activity, negative = inhibition” value is on record?
Answer: Its value is inactive: 19.9%.

Question: Which “activity, negative = inhibition” value does the source give for `COc1ccc(C(=O)NCC(C)NC(=O)c2ccc(OC)c(Br)c2)cc1Br` (stereo not drawn) here?
Answer: The value was inactive: -0.315%.

Question: For `Cc1ccc(S(=O)(=O)C2(C(=O)Nc3ccc(C)c(Cl)c3)CC2)cc1`, which “activity, negative = inhibition” value is on record?
Answer: Its value is inactive: -11.6%.

Question: Which Potency does the source give for `CCOc1ccc(NC(=O)NC2CCS(=O)(=O)C2)cc1` (stereo not drawn) here?
Answer: The Potency was inconclusive: 6.31 µM [inhibitor, single point].

Question: For `CN(CC(=O)Nc1cccc(F)c1)C(=O)c1cc(-c2ccccc2)nc2ccccc12`, which Potency is on record?
Answer: The Potency was inconclusive: 35.5 µM [inhibitor, single point].

Question: With `O=CNc1c(Cl)cc2c(c1Cl)Cc1cc([N+](=O)[O-])ccc1-2` as the molecule, how does the Potency read?
Answer: The Potency was active: 3.16 µM.

Question: With `COc1cccc(-c2csc(NC(=O)Nc3ccccc3)n2)c1` as the molecule, how does the Potency read?
Answer: Its Potency is inconclusive: 10 µM [inhibitor, partial curve, poor fit].

Question: For `COc1ccc(C[C@@H]2CN3C(=NC[C@@H]3C)N2C[C@H](C)NC(=O)c2ccc(C)c(Br)c2)cc1`, which “activity, negative = inhibition” value is on record?
Answer: Its value is inactive: -0.102%.

Question: With `N#Cc1ccc(CSc2ccc(S(=O)(=O)N3CCCCCC3)cn2)cc1` as the molecule, how does the Potency read?
Answer: The Potency was inconclusive: 7.94 µM [inhibitor, partial curve, poor fit].

Question: Which Potency does the source give for `CCN(C(=O)COC(=O)CNC(=O)c1ccc2ccccc2c1)c1c(N)n(Cc2ccccc2)c(=O)[nH]c1=O` here?
Answer: Its Potency is inconclusive: 0.891 µM [inhibitor, full curve, poor fit].

Question: For `Cc1cc(C)c2c(n1)SCC(=O)N2CC(=O)Nc1ccc(C)c(C)c1`, which Potency is on record?
Answer: The Potency was inconclusive: 11.2 µM [inhibitor, partial curve].

Question: For `Cc1cccc(N=C2NC(=O)/C(=C/c3cccn3C)S2)c1`, which Potency is on record?
Answer: The Potency was inconclusive: 12.6 µM [inhibitor, single point].

Question: For `Cn1nc(C(=O)NCc2cccc(Cl)c2)c2c1-c1ccccc1SC2`, which Potency is on record?
Answer: The Potency was inconclusive: 0.398 µM [inhibitor, full curve, poor fit].

Question: For `CCOC(=O)N1CCN(c2nc(-c3cccs3)nc3ccccc23)CC1`, which Potency is on record?
Answer: Its Potency is inconclusive: 3.16 µM [inhibitor, partial curve, poor fit].

Question: Which “activity, negative = inhibition” value does the source give for `CCCCn1c(=O)[nH]c(=O)c2c1nc(-c1ccc(-c3ccc(F)cc3)o1)n2C` here?
Answer: Its value is inactive: -0.747%.

Question: With `CC(=O)Nc1ccc(NC(=O)c2cccc(-c3cc4ccccc4oc3=O)c2)cc1` as the molecule, how does the “activity, negative = inhibition” value read?
Answer: The value was inactive: -15%.

Question: Which Potency does the source give for `COc1ccc(-c2cn3cccnc3n2)cc1NC(=O)COc1ccccc1` here?
Answer: The Potency was inconclusive: 35.5 µM [inhibitor, single point].

Question: With `CN(C)c1ccc(/C=C/c2ccnc3ccccc23)cc1C=O` as the molecule, how does the Potency read?
Answer: The Potency was inconclusive: 35.5 µM [inhibitor, partial curve, poor fit].

Question: Which Potency does the source give for `O=C(Nc1ccc(-c2nc3ccccc3[nH]2)cc1)c1ccc(N2C(=O)CCC2=O)cc1` here?
Answer: Its Potency is inconclusive: 3.98 µM [inhibitor, single point].

Question: Which Potency does the source give for `Cc1nc2ccc(NC(=O)c3cccs3)cc2c(=O)n1Cc1ccc(Cl)cc1` here?
Answer: Its Potency is inconclusive: 20 µM [inhibitor, single point].

Question: With `CCOc1ccc(S(=O)(=O)N2CCN(C(=S)NCc3ccco3)CC2)cc1` as the molecule, how does the Potency read?
Answer: Its Potency is active: 8.91 µM.

Question: With `O=S(=O)(NCc1ccccc1Cl)c1ccc(-c2cnc(C3CC3)o2)cc1` as the molecule, how does the Potency read?
Answer: The Potency was inconclusive: 11.2 µM [inhibitor, partial curve, poor fit].

Question: Which “activity, negative = inhibition” value does the source give for `Cc1ccc(S(=O)(=O)N2[C@@H](c3ccc(Br)cc3)C(C(=O)O)=CC[C@H]2c2ccc(C(C)C)cc2)cc1` here?
Answer: The value was inactive: 8.72%.

Question: For `Cc1ccc(S(=O)(=O)N2CCC(C(=O)NCCC3=CCCCC3)CC2)c(C)c1`, which Potency is on record?
Answer: The Potency was inconclusive: 12.6 µM [inhibitor, partial curve, poor fit].

Question: With `O=C(Nc1ccc(N2CCN(C(=O)c3ccccc3)CC2)cc1)c1cccnc1` as the molecule, how does the “activity, negative = inhibition” value read?
Answer: The value was inactive: -1.97%.

Question: Which Potency does the source give for `Cc1cn2c(=O)c(C(=O)N3CCN(c4ccccc4)CC3)cnc2s1` here?
Answer: Its Potency is inconclusive: 6.31 µM [inhibitor, single point].

Question: Which Potency does the source give for `Cc1ccc2c(c1)nnn2C1CCN(CC(=O)N(c2ccccc2)c2ccccc2)CC1` here?
Answer: The Potency was inconclusive: 22.4 µM [inhibitor, single point].

Question: With `CCOc1ccc(NC(=O)C2CCCN(c3nn4cc(-c5ccc(OC)cc5)nc4s3)C2)cc1` (stereo not drawn) as the molecule, how does the Potency read?
Answer: The Potency was inconclusive: 0.251 µM [inhibitor, full curve, poor fit].

Question: With `Cc1cc(S(=O)(=O)c2ccc([N+](=O)[O-])cn2)ccc1Br` as the molecule, how does the Potency read?
Answer: The Potency was inconclusive: 2.82 µM [inhibitor, partial curve, poor fit].

Question: Which Potency does the source give for `CN(CC(=O)Nc1cccc(F)c1)C(=O)C1CCN(S(=O)(=O)c2ccc3c(c2)OCCO3)CC1` here?
Answer: Its Potency is inconclusive: 11.2 µM [inhibitor, partial curve].

Question: With `CCOC(=O)N1CCN(C(=O)c2cc(COc3cccc(C(C)=O)c3)on2)CC1` as the molecule, how does the “activity, negative = inhibition” value read?
Answer: Its value is inactive: 3.69%.

Question: Which “activity, negative = inhibition” value does the source give for `c1ccc(CCNc2nnnn2-c2ccccc2)cc1` here?
Answer: The value was inactive: 23%.

Question: For `Cc1ccccc1OCCCn1c(CCNC(=O)C2CCCCC2)nc2ccccc21`, which Potency is on record?
Answer: Its Potency is inconclusive: 14.1 µM [inhibitor, single point].

Question: With `O=C(Nc1cccc(NC(=O)c2cncc(Br)c2)c1)c1cncc(Br)c1` as the molecule, how does the Potency read?
Answer: The Potency was inconclusive: 11.2 µM [inhibitor, single point].

Question: Which “activity, negative = inhibition” value does the source give for `CC(NC(=S)NCCCN1CCOCC1)C1CC2CCC1C2` (stereo not drawn) here?
Answer: Its value is inactive: 0%.

Question: For `CC(C)Cn1c(=O)c(C(=O)Nc2ccccc2S(N)(=O)=O)c(O)c2ccccc21`, which Potency is on record?
Answer: Its Potency is inconclusive: 35.5 µM [inhibitor, single point].

Question: With `CC(C)CC(N)c1csc(NC(=O)Nc2ccccc2C(C)C)n1` (stereo not drawn) as the molecule, how does the Potency read?
Answer: Its Potency is inconclusive: 35.5 µM [inhibitor, single point].

Question: For `CCCS(=O)(=O)NCCc1csc2nc(-c3ccc(C)cc3)nn12`, which “activity, negative = inhibition” value is on record?
Answer: Its value is inactive: 17.1%.

Question: For `C=C(C)COc1ccc(-c2nc(N)ncc2Oc2ccc(OC)cc2)c(O)c1`, which Potency is on record?
Answer: Its Potency is inconclusive: 35.5 µM [inhibitor, single point].

Question: For `CCCCOc1ccc(C(=O)Nc2ccc(CN3CCOCC3)cc2)cc1`, which “activity, negative = inhibition” value is on record?
Answer: The value was inactive: -18.1%.
